The other results are listed elsewhere or left out.
test system: PfHDP1 homeodomain (GST-tagged); assay: gcPBM binding intensity (ln(normalized median fluorescence intensity)); higher = stronger DNA binding
Summary of the method: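 Binding intensity values are the highest Masliner-normalised natural-log median intensity among replicate spots of either probe orientation. The binding step lasted 1 h in 1× PBS with 1% milk, 0.2 mg/ml BSA, 0.5% salmon testes DNA and 0.03% Triton X-100, using GST-tagged P. falciparum DNA-binding domains expressed in E. coli on an Agilent 4 × 180k array of primer-extended double-stranded 36-bp intergenic genomic probes plus negative controls. Alexa488 anti-GST antibody and a 488 nm scan detected bound protein.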

Sequence | gcPBM binding intensity (ln)
AAAAAATACTTATAAAGTACTAATATATATAAGCAG [XGTACX_site743] | 6.49
AATACAAACCAAAAAGTAAATACATCAACATGATCA [CACACA_negctrl_site140] | 6.26
GAGAAATTTATACATACACACATATATATATTATAT [CACACA_site4038] | 6.66
TATCATGTTTTTATGGTGCATGAAATCACACATTGA | 8.41
TTTATTAATAAGAAATGTACACAAAATTATTTCCAA [XGTACX_site5970] | 5.95
ATAGAGTCATTCCTCACACACACGCTATATGAATAG [CACACA_site2047] | 6.73
TAAAAAATGATAGAAGTGCATAAAATAATATATATA [GTGCAC_site9904] | 9.06
ATATAATAAATATATTGTACATATGAATCTACTAAA [XGTACX_site7610] | 6.28
AAAAAATTCCTATATACACACACGCACATATTTATA [CACACA_site6192] | 7.2
GACTTGAAGAAATAAGTGCAGAGTTTTATTTTAATT [GTGCAC_site9912] | 6.96
TTTCTATTTCCTTCACATCTTTTCATCTTTTTTTTT [CACACA_negctrl_site1110] | 7.07
TATTTTTTCCTTTGTTTTTTAAACTATCTTAACTAA [XGTACX_negctrl_site519] | 6.37
AAATAAATAAAAAACACACACAAATAAATAAATATA [CACACA_site2249] | 6.72
AAATTTTCATGTGTTGCATGCTGAACTATTTTATCA [TGCATGCA_site856] | 6.64
AATAAAAAGGAAAGGTATATGTGTGCCCTTGTGTTA [TGCATGCA_negctrl_site83] | 6.72
AAGGAATATATATACATACACACATATATATATATA [CACACA_site1665] | 9.33
AGTGGATGAGGACATACACACACACCGAAGTTGATA [CACACA_site9132] | 6.12
AAAAAAAAAAAAAAAAAAAAAAATATATATATATAT [XGTACX_negctrl_site33] | 9.14
AAAAAAAAAAAAACTACACACATACAAATATTTATA [CACACA_site5430] | 6.6

Sequence | gcPBM binding intensity (ln)
AGTATACTCGGACACACACACACATATATATATATA [CACACA_site5031] | 9.14
TACATACATACAGGAGTGCATATATCACAATTATTA | 7.99
GAAATTTTTAATGTGGTGCACAGGAAATTTTTTCTT | 9.56
TATTTCCTTTTTCTTGTTATTCATGAGAAAAAATGA [CACACA_negctrl_site482] | 6.37
AAAATAATAATAGGCACACATATATATATATATATA [CACACA_site2058] | 9.54
ATATATAATATAATATGTACATAAAATTTTAACATT [XGTACX_site5773] | 6.66
TTATATATATCTAATTGTACAATATTATGTTCATTA [XGTACX_site7479] | 6.73
ATTTATTAAATAAAAAGTACAAAATAAGAAAGAAGA [XGTACX_site6935] | 7.53
TATATTCCCTTAATCACACATAAATAAAAAAAAATA [CACACA_site6094] | 6.45
AAAAAAACAGTGAATGCACACATTTAAGATCCATAT [CACACA_site3148] | 9
TTTCTTTATAAATTAATATTCACAACACAAAATATA [CACACA_negctrl_site450] | 6.71
AAGAAAATAAAAAATAAGCATAATATGATATGATAT [TGCATGCA_negctrl_site196] | 6.64
GTGCATATAAGGAAGTGTACGAAAAAAAATATTCCA [XGTACX_site8490] | 7.36
AAAAATTTGGCATACACACACACACCGACACAGACA [CACACA_site4489] | 6.76
CAAATATGTCTTATTCGTACACATATATATATATAT [XGTACX_site8817] | 9.12
ACGACTAAATATATGAGTACATATATATATAAATAT [XGTACX_site7522] | 6.26
AAGAATCATATTTAAACACACATACAGATATATATA [CACACA_site5787] | 6.73
TCTAAAATAAATAATGCATGTTAAAAAAAAATATAT [TGCATGCA_site562] | 6.79
TGCAAAAAATTCCACACACACACACCCATATAAATA [CACACA_site1230] | 6.76

Sequence | gcPBM binding intensity (ln)
ATGTATGTTTATTACTATTTTGAGAATAGACTATAA [CACACA_negctrl_site1366] | 6.3
AATTTGGTGTGTGTAAAAGTATGTGTCTATATTTAT [GTGCAC_negctrl_site166] | 7.17
AGTTATATGATTAATACACACAACAAATGTTTCTTC [CACACA_site1092] | 6.65
CTGATCCACATTTATACACACCTCGGTTTGTAGAGA [CACACA_site4393] | 6.37
AAAATATATAATATTTGTACATATTGATGGCAACAG [XGTACX_site6454] | 6.56
TTTTACACTTTTTTTTGTACACACTAAAAAGATTAA [XGTACX_site8407] | 6.67
CAAATCATATATAGCACACAAATTCTTTATTATTAT [CACACA_site2815] | 6.69
AAAGGTTCATAAAAATGTACATAATTATTTACATGT [XGTACX_site2722] | 6.39
TCATAACAACTTTGTGTGCACATAAAACATGTATAT | 11
TATAAGACATGATATATACACACCTTGTTTTAATTT [CACACA_site2266] | 6.49
TTTTTTTTTTCATTCACACAAAAAAAAAAAATTTAT [CACACA_site5921] | 6.21
ATATGAATATATATATGTACTAATTAGTAGTTTACG [XGTACX_site6273] | 6.98
AATAAAAATATATCCACACACATATATATATATGTA [CACACA_site576] | 6.42
AGAAATTTACAAATACGTACACACATATATATATAT [XGTACX_site3141] | 9.26
GAAGATATGTAAAATTGTACATATTATTTTATTTTA [XGTACX_site5302] | 6.07
TAAATTTATAAATCACGTACATATTTATTTATATTT [XGTACX_site4532] | 6.31
AGATGATATAATGGCACACAAATATTTTATTATAAA [CACACA_site3553] | 6.34
ATAATTTCATAATACGTGCACATAATATATAAAAAA | 10.9
ATTCAAAATTATAGGTGTACGTATTTTTTTTTTTTT [XGTACX_site7177] | 6.43

Source: the supplement of paper PMC11417369
